# From ChEMBL document CHEMBL4888484, “Replenishing the malaria drug discovery pipeline: Screening and hit evaluation of the MMV Hit Generation Library 1 (HGL1) against asexual blood stage Plasmodium falciparum ,using a nano luciferase reporter read-out” (2022)
# About 540 (0.36%) of roughly 150,000 compounds showed an effect of 50% or more. The list shows a part of the results.
# Test system: Plasmodium falciparum
# Experiment: Primary screen in NF54 nanoGlo assay, in single point, at 2uM, 72h; a lower Z score goes with more inhibition
# Format: functional, Erythrocyte
# Conditions: timepoint 72 hour
SMILES,% Inhibition [%],Z score
COc1cccc([C@H]2Nc3ccccc3-n3c(-c4ccccc4C)c4c(=O)n(C)c(=O)n(C)c4c32)c1O,2,-0.4
Cc1ccoc1C(=O)NCC1(c2ccccc2)CC1,-26,3.09
CNC(=O)Cc1csc(NC(=O)c2cccnc2O[C@H]2CCOC2)n1,0,0.07
c1cnc(-c2nc(CN3CCC[C@H]3c3cccs3)cs2)nc1,-11,1.43
Cc1cccc(NC(=O)c2nnc(CCC(=O)N3CCCC3)s2)c1,-13,2.44
CC1(C)CCc2ccccc2[C@@H](NCC(=O)NC2CCOCC2)C1,-15,2.05
CN(C)S(=O)(=O)N1CCC(CNC(=O)CC2CC2)CC1,1,-0.23
Cc1noc(C)c1S(=O)(=O)N1CC[C@H](c2ncon2)C1,4,-0.72
O=C(CN1CCCS1(=O)=O)N1CCCCC[C@H]1c1noc(-c2ccccc2)n1,-13,1.51
CC(C)CC1(NC2CCN(c3ccc(-n4cccn4)cc3)CC2)CC1,-5,0.88
Cc1ccc(C(=O)N2CC[C@H](O)[C@@H](C3CCCC3)C2)c(C2CC2)n1,-13,2.22
Cc1nccc(O[C@H]2CCN(C(=O)CCC(=O)c3ccccc3)C2)n1,-14,2.24
O=C(N[C@H]1CCOC[C@@H]1OCc1ccccn1)c1ccncc1O,-15,2.26
Cc1nc(CNc2ccc(CCC(F)(F)F)cc2)no1,0,-0.05
CCn1c(C2CCNCC2)nn(C/C=C/c2ccccc2)c1=O,4,-0.4
CCOc1ccc(-n2nc3ccc(NC(=O)c4ccc(-c5cccc(Cl)c5)o4)cc3n2)cc1,-2,0.31
Cc1ccc(C)c(NC(=O)[C@H](OC(=O)c2cc(-c3ccccc3Cl)nc3ccccc23)c2ccccc2)c1,9,-1.62
CCC(CC)NC(=O)c1ccc(OC)c(OC)c1,-8,1.61
CCc1nc(NCCNS(=O)(=O)c2ccc(C)cc2)c2c(C)nn(-c3ccccc3C)c2n1,4,-0.47
CCCc1cc(C(=O)N2CC[C@H](Oc3cccnc3N(C)C)C2)no1,-5,0.99
Cc1ccc([C@H](C)NC(=O)c2cnn(CCC(C)C)c2C(C)C)o1,-8,0.84
COCc1nc(CN2C[C@@](C)(Cc3ccc4c(c3)OCO4)CCC2=O)no1,-2,0.31
CC1=CCN(S(=O)(=O)c2cccc(C(=O)NCc3ccncn3)c2)CC1,3,-0.6
O=C(NCCOCCO)c1cccc(Br)c1Cl,-5,0.53
O=C(NCc1nnc(C2CC2)s1)[C@H]1CCN(c2ccccc2)C1,-5,0.87
COCCNC(=O)c1cn2ccnc(-c3ccc(OC)cc3)c2n1,33,-3.72
CC[C@H](C)NC(=O)c1ccc(Oc2ccc(NS(=O)(=O)c3cc(C)ccc3C)cn2)cc1,-2,0.23

SMILES,% Inhibition [%],Z score
CC(=O)c1ccccc1-c1ccc2[nH]ncc2c1,-3,0.38
Cc1ccc(NC(=O)NCCc2ncc(C)n2Cc2ccc(F)cc2)cc1C,-18,1.91
Cc1ccc(NC(=O)NC2CCN(Cc3cc(F)cc(F)c3)CC2)cn1,-7,1.21
Cc1nc(Cc2noc(CC3CC4CCC3C4)n2)no1 (stereo not drawn),-12,1.03
C[C@H](NC(=O)NCC1CCOCC1)c1ccc(Br)cc1,-4,0.4
CCCc1cnc(C)nc1NCCc1c[nH]cn1,-9,1.15
COc1nscc1CN(C)C(=O)[C@@H](C(=O)O)C(C)(C)C,-2,0.35
Cc1cc(C)c2c(c1)CCCN2C(=O)CCCS(C)(=O)=O,-8,0.88
C[C@@H](c1ccccc1)N1CC(CO)(CO)C1,2,-0.4
CCC(C)C(NC(=O)C(C)Cc1cccs1)C(=O)O (stereo not drawn),-11,1.51
Cc1nc(CCC(=O)N(C)Cc2csc(-c3ccccc3)n2)n[nH]1,12,-1.58
O=C(Nc1cc(-c2cc(F)cc(Br)c2)[nH]n1)c1cccnc1,2,-0.19
CC(=O)N1CCc2nc(CC3CC3)nc(NC[C@H]3CCCO3)c2CC1,-21,2.14
C#CCCC1(CCC(=O)N2CCCc3ccccc3CC2)N=N1,9,-1.13
COc1ccccc1NC(=O)Cn1c(C)cc2nc3n(c(=O)c21)CCCCC3,-4,0.6
N#Cc1cccc(C2CCN(C(=O)CN3C(=O)c4ccccc4C3=O)CC2)c1,-10,1.73
Cc1c(C(=O)NCc2ccccc2)c(C)n2cnn(CC(=O)Nc3ccc4c(c3)OCO4)c(=O)c12,-3,0.5
COc1ccc(-c2c(-c3ccc(C)c(C)c3)[nH]c3c2c(=O)n(C)c(=O)n3C)cc1,11,-1.64
COc1ccccc1CN1C(=O)O[C@H]2CN(c3ncnc4[nH]cnc34)C[C@H]21,-5,0.91
O=C(c1cnc(Cc2ccccc2)s1)N1CCOC[C@@H]1CCO,-7,0.92
O=C1CC[C@H](N2CCOCC2)CCN1Cc1cccc(C(F)(F)F)c1,-6,0.69
Cc1cc(C)cc(OCCCNCCO)c1,-16,2.12
C[C@@H](Cc1ccncc1)NC(=O)c1c[nH]c(=O)[nH]c1=O,-9,0.89
O=S(=O)(NCc1ccncc1OC[C@H]1CCOC1)c1ccc2[nH]nnc2c1,-9,1.34
c1csc(-c2nc(-c3ccc4c(c3)OCO4)no2)c1,-5,0.97
Cc1nc(O)cc([C@H]2CCCN(C(=O)C3(c4ccccc4)CCCC3)C2)n1,-3,0.39
CCOc1ccccc1C(=O)NCc1ccnc(-c2cnn(C)c2)c1,-10,1.59
